# Patent publication US20250034274A1 (Daiichi Sankyo, published 2025)
# B1: MhM1023-M1 (antibody)
# heavy: QVQLVQSGAEVKKPGASVKVSCKASGAAFSNYLIEWVRQAPGQGLEWMGVINPGSGVTNYNEKFKGRVTITADTSTSTAYMELSSLRSEDTAVYYCARAEAWFAYWGQGTLVTVSSASTKGPSVFPLAPSSKSTSGGTAALGCLVKDYFPEPVTVSWNSGALTSGVHTFPAVLQSSGLYSLSSVVTVPSSSLGTQTYICNVNHKPSNTKVDKRV[human IgG1 Fc not shown]
# light: GNFYHQYPWPLEILGSGGGGSPLGLAGGGPLFAAPGGSDIVMTQSPDSLAVSLGERATINCKSSQSLLYSSNQKNYLAWYQQKPGQPPKLLIYWASTRESGVPDRFSGSGSGTDFTLTISSLQAEDVAVYYCQRYYGYPWTFGQGTKVEIKRTVAAPSVFIFPPSDEQLKSGTASVVCLLNNFYPREAKVQWKVDNALQSGNSQESVTEQDSKDSTYSLSSTLTLSKADYEKHKVYACEVTHQGLSSPVTKSFNRGEC
# notes: Anti-CD98 masked antibody; MMP9 substrate and CAPN substrate
# How the values were obtained:
# [1] = target: T1, biotinylated human CD98 antigen (human, UniProt P08195 105-529, biotinylated with EZ-Link NHS-PEG4-Biotin (for ELISA)); test: ELISA, immobilised biotinylated human CD98, anti-human IgG-HRP, chemiluminescence; antibody pre-incubated with MMP9
# T1 construct: extracellular domain
# T1 sequence (looked up): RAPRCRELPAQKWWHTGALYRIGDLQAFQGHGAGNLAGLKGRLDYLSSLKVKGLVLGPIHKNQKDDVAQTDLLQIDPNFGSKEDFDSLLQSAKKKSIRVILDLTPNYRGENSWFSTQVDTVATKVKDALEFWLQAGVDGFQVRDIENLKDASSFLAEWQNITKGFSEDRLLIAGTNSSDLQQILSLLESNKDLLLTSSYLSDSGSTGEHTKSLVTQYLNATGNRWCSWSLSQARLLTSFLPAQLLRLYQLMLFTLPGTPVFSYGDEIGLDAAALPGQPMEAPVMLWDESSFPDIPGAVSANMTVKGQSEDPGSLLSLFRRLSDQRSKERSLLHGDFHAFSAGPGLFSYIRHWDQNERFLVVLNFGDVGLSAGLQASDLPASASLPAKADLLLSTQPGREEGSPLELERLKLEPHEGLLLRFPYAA
# [2] = target: T1, biotinylated human CD98 antigen; test: ELISA, immobilised biotinylated human CD98, anti-human IgG-HRP, chemiluminescence; antibody pre-incubated with CAPN1
# [3] = target: T1, biotinylated human CD98 antigen; test: ELISA, immobilised biotinylated human CD98, anti-human IgG-HRP, chemiluminescence; without protease
binder,measurement,setting,value
B1,EC50 (read off the curve),[1],~0.9 nM
same,EC50 (read off the curve),[2],~3 nM
same,EC50 (read off the curve),[3],~100 nM
